Results as given in the supplement of paper PMC4967469.

How the values were obtained:
Experiment in all cases: Viability of human cancer cell lines after 72 h of drug (GDSC screen)
Cytarabine = compound: Nc1ccn([C@@H]2O[C@H](CO)[C@@H](O)[C@@H]2O)c(=O)n1 [Cytarabine]; conditions: top dose 2 µM
Description: (§1)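 Human cancer cell lines in 384-well plates, medium with 10% serum, drug for 72 h over a 256-fold dose range (nine 2-fold or five 4-fold steps up to the top dose). Adherent lines were fixed and stained with the nucleic acid dye Syto60, suspension lines read with resazurin; signal relative to control wells, capped at 0 and 100%. One two-parameter sigmoid per drug and line, fitted in a mixed model over all curves with the slope shared within a line.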

Zibotentan = compound: COc1nc(C)cnc1NS(=O)(=O)c1cccnc1-c1ccc(-c2nnco2)cc1 [Zibotentan]; conditions: top dose 20 µM; top dose inferred
Description: as §1

CP466722 = compound: COc1cc2ncnc(-n3nc(-c4ccccn4)nc3N)c2cc1OC [CP466722]; conditions: top dose 16 µM; top dose inferred
Description: as §1

ABT-888 = compound: C[C@]1(c2nc3c(C(N)=O)cccc3[nH]2)CCCN1 [ABT-888]; conditions: top dose 5 µM; top dose inferred
Description: as §1

KU-55933 = compound: O=c1cc(-c2cccc3c2Sc2ccccc2S3)oc(N2CCOCC2)c1 [KU-55933]; conditions: top dose 10 µM
Description: as §1

GSK269962A = compound: CCn1c(-c2nonc2N)nc2cnc(Oc3cccc(NC(=O)c4ccc(OCCN5CCOCC5)cc4)c3)cc21 [GSK269962A]; conditions: top dose 5 µM; screen: GDSC drug entry 1192; top dose inferred
Description: as §1

(5Z)-7-Oxozeaenol = compound: COc1cc(O)c2c(c1)/C=C/C[C@H](O)[C@H](O)C(=O)/C=C\C[C@H](C)OC2=O [(5Z)-7-Oxozeaenol]; conditions: top dose 10 µM; top dose inferred
Description: as §1

CHIR-99021 = compound: Cc1cnc(-c2cnc(NCCNc3ccc(C#N)cn3)nc2-c2ccc(Cl)cc2Cl)[nH]1 [CHIR-99021]
Description: as §1

ABT-869 = compound: Cc1ccc(F)c(NC(=O)Nc2ccc(-c3cccc4[nH]nc(N)c34)cc2)c1 [ABT-869]; conditions: top dose 1.024 µM; top dose inferred
Description: as §1

QL-X-138 = compound: C=CC(=O)Nc1cc(-n2c(=O)ccc3cnc4ccc(-c5cn[nH]c5)cc4c32)ccc1C [QL-X-138]; conditions: top dose 10.24 µM; top dose inferred
Description: as §1

Thapsigargin = compound: C/C=C(/C)C(=O)O[C@H]1C(C)=C2[C@H]([C@@H]1OC(=O)CCCCCCC)[C@@](C)(OC(C)=O)C[C@H](OC(=O)CCC)[C@@]1(O)[C@H]2OC(=O)[C@@]1(C)O [Thapsigargin]; conditions: top dose 0.512 µM; top dose inferred
Description: as §1

MPS-1-IN-1 = compound: COc1cc(N2CCC(O)CC2)ccc1Nc1cc(Nc2ccccc2S(=O)(=O)C(C)C)c2cc[nH]c2n1 [MPS-1-IN-1]; conditions: top dose 20 µM; top dose inferred
Description: as §1

[1] = top dose 2.56 µM, screen: GDSC drug entry 154
[2] = top dose 10 µM, screen: GDSC drug entry 1241, top dose inferred

| Cell Line | AUC (Cytarabine) | IC50 (Cytarabine) | AUC (Zibotentan) | IC50 (Zibotentan) | AUC (CP466722) | IC50 (CP466722) | AUC (ABT-888) | IC50 (ABT-888) | AUC (KU-55933) | IC50 (KU-55933) | AUC (GSK269962A) | IC50 (GSK269962A) | AUC ((5Z)-7-Oxozeaenol) | IC50 ((5Z)-7-Oxozeaenol) | AUC (CHIR-99021; [1]) | IC50 (CHIR-99021; [1]) | AUC (CHIR-99021; [2]) | IC50 (CHIR-99021; [2]) | AUC (ABT-869) | IC50 (ABT-869) | AUC (QL-X-138) | IC50 (QL-X-138) | AUC (Thapsigargin) | IC50 (Thapsigargin) | AUC (MPS-1-IN-1) | IC50 (MPS-1-IN-1) |
| --- | --- | --- | --- | --- | --- | --- | --- | --- | --- | --- | --- | --- | --- | --- | --- | --- | --- | --- | --- | --- | --- | --- | --- | --- | --- | --- |
| KYSE-510 (oesophagus, adherent) | 0.657 | 0.313 µM | 0.992 | > 20 µM | 0.946 | > 16 µM | 0.976 | > 5 µM | 0.976 | > 10 µM | 0.977 | > 5 µM | 0.786 | 3.57 µM | 0.992 | > 2.56 µM | 0.99 | > 10 µM | 0.991 | > 1.02 µM | 0.906 | 9.76 µM | 0.112 | 0.00252 µM | 0.946 | > 20 µM |
| KYSE-520 (oesophagus, adherent) | 0.842 | > 2 µM | 0.979 | > 20 µM | 0.827 | 14.6 µM | 0.951 | > 5 µM | 0.965 | > 10 µM | 0.979 | > 5 µM | 0.793 | 6.43 µM | 0.969 | > 2.56 µM | 0.979 | > 10 µM | 0.98 | > 1.02 µM | 0.732 | 3.75 µM | 0.306 | 0.00749 µM | 0.822 | 17.3 µM |
| LC-1-sq (lung squamous cell carcinoma, adherent) | 0.897 | > 2 µM | 0.981 | > 20 µM | 0.84 | 13.8 µM | 0.948 | > 5 µM | 0.938 | > 10 µM | 0.976 | > 5 µM | 0.976 | > 10 µM | 0.928 | > 2.56 µM | 0.918 | > 10 µM | 0.982 | > 1.02 µM | 0.865 | > 10.2 µM | 0.303 | 0.00806 µM | 0.978 | > 20 µM |
| LCLC-103H (large cell lung carcinoma, adherent) | 0.951 | > 2 µM | 0.99 | > 20 µM | 0.817 | 7.9 µM | 0.957 | > 5 µM | 0.933 | > 10 µM | 0.984 | > 5 µM | 0.898 | > 10 µM | 0.968 | > 2.56 µM | 0.987 | > 10 µM | 0.989 | > 1.02 µM | 0.616 | 1.29 µM | 0.135 | 0.00268 µM | 0.956 | > 20 µM |
| LN-229 (glioma, adherent) | 0.77 | 0.757 µM | 0.988 | > 20 µM | 0.898 | > 16 µM | 0.987 | > 5 µM | 0.968 | > 10 µM | 0.87 | 4.62 µM | 0.562 | 0.925 µM | 0.987 | > 2.56 µM | 0.88 | > 10 µM | 0.988 | > 1.02 µM | 0.897 | > 10.2 µM | 0.442 | 0.0222 µM | 0.923 | > 20 µM |
| LN-405 (glioma, adherent) | 0.955 | > 2 µM | 0.984 | > 20 µM | 0.815 | 11.8 µM | 0.978 | > 5 µM | 0.963 | > 10 µM | 0.931 | > 5 µM | 0.737 | 3.62 µM | 0.983 | > 2.56 µM | 0.957 | > 10 µM | 0.982 | > 1.02 µM | 0.74 | 3.8 µM | 0.834 | 0.464 µM | 0.984 | > 20 µM |
| LNZTA3WT4 (glioma, adherent) | 0.633 | 0.289 µM | 0.979 | > 20 µM | 0.92 | > 16 µM | 0.988 | > 5 µM | 0.972 | > 10 µM | 0.886 | > 5 µM | 0.595 | 1.13 µM | 0.981 | > 2.56 µM | 0.971 | > 10 µM | 0.987 | > 1.02 µM | 0.921 | > 10.2 µM | 0.734 | 0.146 µM | 0.957 | > 20 µM |
| LOU-NH91 (lung squamous cell carcinoma, adherent) | 0.842 | 1.59 µM | 0.985 | > 20 µM | 0.93 | > 16 µM | 0.986 | > 5 µM | 0.986 | > 10 µM | 0.872 | > 5 µM | 0.682 | 2.12 µM | 0.985 | > 2.56 µM | 0.948 | > 10 µM | 0.985 | > 1.02 µM | 0.974 | > 10.2 µM | 0.386 | 0.0151 µM | 0.891 | > 20 µM |
| LU-135 (small cell lung carcinoma, suspension) | 0.951 | > 2 µM | 0.99 | > 20 µM | 0.909 | 15.8 µM | 0.992 | > 5 µM | 0.95 | > 10 µM | 0.842 | 2.67 µM | 0.897 | 8.69 µM | 0.958 | > 2.56 µM | 0.99 | > 10 µM | 0.992 | > 1.02 µM | 0.48 | 0.57 µM | 0.138 | 0.00319 µM | 0.864 | 12.8 µM |
| M059J (glioma, adherent) | 0.858 | 1.88 µM | 0.985 | > 20 µM | 0.798 | 8.38 µM | 0.985 | > 5 µM | 0.981 | > 10 µM | 0.896 | > 5 µM | 0.715 | 2.69 µM | 0.92 | > 2.56 µM | 0.94 | > 10 µM | 0.965 | > 1.02 µM | 0.669 | 1.98 µM | 0.31 | 0.00893 µM | 0.94 | > 20 µM |

A lower IC50 marks a more sensitive line; where the fit passes the top or lowest dose, that dose stands as a limit. AUC is the area under the same curve over the 256-fold range up to the top dose, as a fraction: 1 means no effect, lower means more sensitive. For some assays here: An inferred top dose was calculated from the reported fits. For some assays here: Drugs with an entry number were screened twice under separate entries, and the two screens often disagree.
